Test results as given in the supplement of paper PMC8728848.
This is one part of the list.

Columns and labels:
Experiment in all cases: glycan array binding signal (z-score within array); higher = stronger binding
Settings in all cases: glycan notation: IUPAC condensed, linker removed
Glc(b1-6)Glc = molecular target: Glc(b1-6)Glc
Procedure, shortened: (§1)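 Glycan array data came from 3228 arrays in the Consortium for Functional Glycomics database, and only arrays with an available protein sequence were kept. Glycan names were put into IUPAC-condensed notation, and columns mapping to the same glycan were averaged. The binding signal is a within-array Z-score, averaged across arrays of one protein sequence run at different concentrations or buffers and across linkers. A negative Z-score can be read as non-binding.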

GlcA(b1-3)Gal = molecular target: GlcA(b1-3)Gal
Procedure, shortened: as §1

GlcA(b1-3)GlcNAc = molecular target: GlcA(b1-3)GlcNAc
Procedure, shortened: as §1

GlcA(b1-6)Gal = molecular target: GlcA(b1-6)Gal
Procedure, shortened: as §1

[1] = molecular target: GlcA3S(b1-3)Gal(b1-4)GlcNAc(b1-2)Man
Procedure, shortened: as §1

[2] = molecular target: GlcA3S(b1-3)Gal(b1-4)GlcNAc(b1-3)Gal(b1-4)Glc
Procedure, shortened: as §1

[3] = molecular target: GlcNAc(a1-3)Gal(b1-4)GlcNAc
Procedure, shortened: as §1

[4] = molecular target: GlcNAc(a1-4)Gal(b1-3)GlcNAc
Procedure, shortened: as §1

[5] = molecular target: GlcNAc(a1-4)Gal(b1-4)GalNAc
Procedure, shortened: as §1

[6] = molecular target: GlcNAc(a1-4)Gal(b1-4)GlcNAc
Procedure, shortened: as §1

[7] = molecular target: GlcNAc(a1-4)Gal(b1-4)GlcNAc(b1-3)Gal(b1-4)Glc
Procedure, shortened: as §1

[8] = molecular target: GlcNAc(a1-4)Gal(b1-4)GlcNAc(b1-3)Gal(b1-4)GlcNAc
Procedure, shortened: as §1

[9] = molecular target: GlcNAc(a1-4)Gal(b1-4)GlcNAc(b1-3)Gal(b1-4)GlcNAc(b1-3)Gal(b1-4)GlcNAc
Procedure, shortened: as §1

[10] = molecular target: GlcNAc(a1-4)Gal(b1-4)GlcNAc(b1-3)Gal(b1-4)[Fuc(a1-3)]GlcNAc(b1-3)Gal(b1-4)[Fuc(a1-3)]GlcNAc
Procedure, shortened: as §1

[11] = molecular target: GlcNAc(a1-6)Gal(b1-4)GlcNAc
Procedure, shortened: as §1

[12] = molecular target: GlcNAc(b1-2)Gal(b1-3)GalNAc
Procedure, shortened: as §1

[13] = molecular target: GlcNAc(b1-2)Man(a1-3)[GlcNAc(b1-2)Man(a1-6)]Man(b1-4)GlcNAc(b1-4)GlcNAc
Procedure, shortened: as §1

[14] = molecular target: GlcNAc(b1-2)Man(a1-3)[GlcNAc(b1-2)Man(a1-6)]Man(b1-4)GlcNAc(b1-4)[Fuc(a1-6)]GlcNAc
Procedure, shortened: as §1

[15] = molecular target: GlcNAc(b1-2)Man(a1-3)[GlcNAc(b1-4)][GlcNAc(b1-2)Man(a1-6)]Man(b1-4)GlcNAc(b1-4)GlcNAc
Procedure, shortened: as §1

[16] = molecular target: GlcNAc(b1-2)Man(a1-3)[GlcNAc(b1-4)][GlcNAc(b1-2)Man(a1-6)]Man(b1-4)GlcNAc(b1-4)[Fuc(a1-6)]GlcNAc
Procedure, shortened: as §1

[17] = molecular target: GlcNAc(b1-2)[GlcNAc(b1-4)]Man(a1-3)[GlcNAc(b1-2)Man(a1-6)]Man(b1-4)GlcNAc(b1-4)GlcNAc
Procedure, shortened: as §1

[18] = molecular target: GlcNAc(b1-2)[GlcNAc(b1-4)]Man(a1-3)[GlcNAc(b1-4)][GlcNAc(b1-2)Man(a1-6)]Man(b1-4)GlcNAc(b1-4)GlcNAc
Procedure, shortened: as §1

[19] = molecular target: GlcNAc(b1-2)[GlcNAc(b1-4)]Man(a1-3)[GlcNAc(b1-4)][GlcNAc(b1-2)[GlcNAc(b1-6)]Man(a1-6)]Man(b1-4)GlcNAc(b1-4)GlcNAc
Procedure, shortened: as §1

[20] = molecular target: GlcNAc(b1-2)[GlcNAc(b1-4)]Man(a1-3)[GlcNAc(b1-4)][GlcNAc(b1-2)[GlcNAc(b1-6)]Man(a1-6)]Man(b1-4)GlcNAc(b1-4)[Fuc(a1-6)]GlcNAc
Procedure, shortened: as §1

[21] = molecular target: GlcNAc(b1-2)[GlcNAc(b1-6)]Man(a1-6)[GlcNAc(b1-2)Man(a1-3)]Man(b1-4)GlcNAc(b1-4)GlcNAc
Procedure, shortened: as §1

[22] = molecular target: GlcNAc(b1-2)[GlcNAc(b1-6)]Man(a1-6)[GlcNAc(b1-2)Man(a1-3)]Man(b1-4)GlcNAc(b1-4)[Fuc(a1-6)]GlcNAc
Procedure, shortened: as §1

[23] = molecular target: GlcNAc(b1-2)[GlcNAc(b1-6)]Man(a1-6)[GlcNAc(b1-4)][GlcNAc(b1-2)Man(a1-3)]Man(b1-4)GlcNAc(b1-4)GlcNAc
Procedure, shortened: as §1

GlcNAc(b1-3)Fuc = molecular target: GlcNAc(b1-3)Fuc
Procedure, shortened: as §1

GlcNAc(b1-3)Gal = molecular target: GlcNAc(b1-3)Gal
Procedure, shortened: as §1

[24] = molecular target: GlcNAc(b1-3)Gal(b1-3)GalNAc
Procedure, shortened: as §1

GlcNAc(b1-3)Gal(b1-4)Glc = molecular target: GlcNAc(b1-3)Gal(b1-4)Glc
Procedure, shortened: as §1

[25] = molecular target: GlcNAc(b1-3)Gal(b1-4)GlcNAc
Procedure, shortened: as §1

[26] = molecular target: GlcNAc(b1-3)Gal(b1-4)GlcNAc(b1-2)Man(a1-3)[GlcNAc(b1-3)Gal(b1-4)GlcNAc(b1-2)Man(a1-6)]Man(b1-4)GlcNAc(b1-4)GlcNAc
Procedure, shortened: as §1

[27] = molecular target: GlcNAc(b1-3)Gal(b1-4)GlcNAc(b1-2)Man(a1-3)[GlcNAc(b1-3)Gal(b1-4)GlcNAc(b1-2)Man(a1-6)]Man(b1-4)GlcNAc(b1-4)[Fuc(a1-6)]GlcNAc
Procedure, shortened: as §1

[28] = molecular target: GlcNAc(b1-3)Gal(b1-4)GlcNAc(b1-2)[GlcNAc(b1-3)Gal(b1-4)GlcNAc(b1-6)]Man(a1-6)[GlcNAc(b1-3)Gal(b1-4)GlcNAc(b1-2)Man(a1-3)]Man(b1-4)GlcNAc(b1-4)GlcNAc
Procedure, shortened: as §1

[29] = molecular target: GlcNAc(b1-3)Gal(b1-4)GlcNAc(b1-3)Gal(b1-4)GlcNAc
Procedure, shortened: as §1

[30] = molecular target: GlcNAc(b1-3)Gal(b1-4)GlcNAc(b1-3)Gal(b1-4)GlcNAc(b1-2)Man(a1-3)[GlcNAc(b1-3)Gal(b1-4)GlcNAc(b1-3)Gal(b1-4)GlcNAc(b1-2)Man(a1-6)]Man(b1-4)GlcNAc(b1-4)GlcNAc
Procedure, shortened: as §1

B1: PX14367A-bth-493-35-493 (Bacteroides thetaiotaomicron) (protein)
chain: VSSDQVAVAGNAERLFNGAWYNLFEYGTTYANIGYRALQCQDDMMASDVVSRPKYGFNSSYQFNDVAIPSDGRTSFAWYLIYKTIDNCNTAISIKGDSEELRQAQGQALALRAFCYLHLVQHYQFTYLKDKDAPCVPIYTEPTTSGTKPKGKSTVAQVYQQIFDDLNLAQDYLTNYVRKGDGQKFKPNTDVVNGLMARAYLLTGQWGEAAKAAEAARKGYSLMTTTAEYEGFNNISNKEWIWGSPQTLSQSDASYNFYYLDATYVGAYSSFMADPHLMDTFVKGDIRLPLFQWMREGYLGYKKFHMRSDDTADLVLMRSAEMYLIEAEAKVRDGVALDQAVAPLNTLRTARGVGNYDVTGKTKEQVIDEILMERRRELWGEGFGITDVLRNQKAVERMALSEDMQKTEVDCWQEGGSFAKRNPLGHWFLNFPDGKAFSANSSYYLYAIPEKEINANPNL
- glycan array binding signal (z-score) (Glc(b1-6)Glc): -0.397
- glycan array binding signal (z-score) (GlcA(b1-3)Gal): -0.402
- glycan array binding signal (z-score) (GlcA(b1-3)GlcNAc): -0.373
- glycan array binding signal (z-score) (GlcA(b1-6)Gal): -0.474
- glycan array binding signal (z-score) [1]: -0.449
- glycan array binding signal (z-score) [2]: -0.74
- glycan array binding signal (z-score) [3]: -0.067
- glycan array binding signal (z-score) [4]: 0.004
- glycan array binding signal (z-score) [5]: -0.551
- glycan array binding signal (z-score) [6]: 0.117
- glycan array binding signal (z-score) [7]: -0.491
- glycan array binding signal (z-score) [8]: -0.491
- glycan array binding signal (z-score) [9]: 0.383
- glycan array binding signal (z-score) [10]: 0.448
- glycan array binding signal (z-score) [11]: 1.87
- glycan array binding signal (z-score) [12]: -0.315
- glycan array binding signal (z-score) [13]: -0.457
- glycan array binding signal (z-score) [14]: 0.35
- glycan array binding signal (z-score) [15]: -0.413
- glycan array binding signal (z-score) [16]: -0.396
- glycan array binding signal (z-score) [17]: -0.197
- glycan array binding signal (z-score) [18]: -0.493
- glycan array binding signal (z-score) [19]: -0.379
- glycan array binding signal (z-score) [20]: -0.026
- glycan array binding signal (z-score) [21]: 0.663
- glycan array binding signal (z-score) [22]: -0.351
- glycan array binding signal (z-score) [23]: -0.454
- glycan array binding signal (z-score) (GlcNAc(b1-3)Fuc): -0.359
- glycan array binding signal (z-score) (GlcNAc(b1-3)Gal): -0.294
- glycan array binding signal (z-score) [24]: -0.008
- glycan array binding signal (z-score) (GlcNAc(b1-3)Gal(b1-4)Glc): 0.275
- glycan array binding signal (z-score) [25]: 0.048
- glycan array binding signal (z-score) [26]: -0.408
- glycan array binding signal (z-score) [27]: -0.198
- glycan array binding signal (z-score) [28]: 0.049
- glycan array binding signal (z-score) [29]: -0.619
- glycan array binding signal (z-score) [30]: 1.06
